# From publication PMC12040169 (PLOS Biology, 2025)
# The list shows a part of the results.
# System: T1, C. trachomatis L2/434/Bu expressing GFP (CTL2-GFP)
# T1 construct: L2/434/Bu GFP intracellular growth in HeLa cells
# Parameters: species or system HeLa; C. trachomatis total inclusion area by high-content imaging, normalised to DMSO
# Conditions: total inclusion area; 28.5 h, 10 µM; inhibitor
# Outline: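 Bulk GFP and resorufin signals were read first. Wells were then fixed, stained with Hoechst and imaged to detect GFP inclusions and host nuclei. MICs followed the previously described calculation.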
row,SMILES,% of control remaining
1,CCOC(=O)CN1C(=O)S/C(=C/c2cc(C)n(-c3cc(C)ccn3)c2C)C1=O [CBK264731],106.879
2,c1nc(OC2CCOC2)cc(N2CCCC2)n1 (stereo not shown) [CBK115899],80.2907
3,CCN1C(=O)CC(C(=O)O)S/C1=N\c1ccc(OC)cc1 (stereo not shown) [CBK287266],87.0781
4,CCC(CN1CCOCC1)NC(=O)Cc1coc2cc(C)c(C)cc12 (stereo not shown) [CBK282811],83.2744
5,Cc1c(C(=O)N2CCC[C@@H]2CO)nnn1Cc1ccc(F)cc1F [CBK304071],48.282
6,Cc1ccc(-c2cc(CC3(C(=O)N(C)C)CCCN(C)C3)on2)cc1 (stereo not shown) [CBK281695],90.9781
7,NS(=O)(=O)c1cc(C(=O)OCCNC(=O)c2ccccc2)c(Cl)cc1Cl [CBK265193],103.207
8,O=C(O)CCc1ccc(-c2ccccc2)n1CC1CCCO1 (stereo not shown) [CBK267955],94.0533
9,CN(CC(=O)O)S(=O)(=O)c1ccc(F)c2ccccc12 [CBK268447],109.781
10,COc1cc(CN2CCN(C/C=C/c3ccccc3)CC2)cc(I)c1O [CBK261882],91.489
11,N#Cc1c(O)nc(SCC(=O)Nc2ccc(Oc3ccccc3)cc2)nc1-c1ccccc1 [CBK266607],105.759
12,OCCN(CCO)c1cncc(-c2ccc(F)c(Cl)c2)n1 [CBK066015],162.602
13,CC(C)(C)OC(=O)NCCNCc1ccccc1Br [CBK056693],123.685
14,Cc1cnc2[nH]c(C(C)C)c(CN(C)C)c2c1 [CBK284758],104.027
15,CCOC(=O)NC(=O)CSc1nnc(C2COc3ccccc3O2)n1-c1ccccc1 (stereo not shown) [CBK297884],126.436
16,Cc1cnc(CNC(=O)/C=C/c2ccc(C(C)C)cc2)cn1 [CBK149625],82.8853
17,O=[N+]([O-])c1cccc(S(=O)(=O)NCc2ccccn2)c1 [CBK263669],95.8782
18,CC(C)(C)C(=O)NC(NC(=S)Nc1sc2c(c1C(N)=O)CCCC2)C(Cl)(Cl)Cl (stereo not shown) [CBK261052],89.8524
19,CC(C)(C)OC(=O)Nc1cc(Cl)ccc1C(=O)O [CBK200024],131.742
20,COCc1ccccc1Cn1cnc2ccccc21 [CBK267496],69.9434
21,CC(C)NC(=O)NC[C@H]1C[C@@H]2CC[N@]1C[C@@H]2CN1CCN(c2ncccn2)CC1 [CBK289116],76.9693
22,CC(C)NC(=O)CCNc1ncc(C(N)=O)cc1Cl [CBK306373],52.5933
23,O=C(O)CCCCCNc1ncnc2sc3c(c12)CCCC3 [CBK077446],79.2633
24,CCn1c2ccccc2c2cc(Nc3cc(-c4ccc(OC(F)(F)F)cc4)ncn3)ccc21 [CBK090842],107.228
25,COc1ccc(C2CC(c3ccccc3O)=NN2)cc1 (stereo not shown) [CBK287281],95.8576
26,Nc1ncc(-c2cc3ccccc3s2)nc1-c1ccc(CCC(=O)O)cc1 [CBK064134],129.044
27,Cc1ccc(S(=O)(=O)Nc2c(C(=O)N3CCOCC3)[nH]c3ccccc23)cc1 [CBK050066],104.396

row,SMILES,% of control remaining
1,COc1ccccc1C1OC(=O)C[C@@H]1C(=O)Nc1cc(C(C)(C)C)on1 (stereo partly shown) [CBK021439],32.7771
2,c1cnc(N2CCN(CCN3CCOCC3)CC2)c(OCCN2CCOCC2)n1 [CBK082899],99.4935
3,COc1ccc(Br)cc1S(=O)(=O)NCc1cccnc1 [CBK264023],98.6422
4,CCNC(=O)Nc1ncc(-c2ccc(Oc3ccccc3)cc2)c2cccnc12 [CBK070636],109.322
5,CN(C)/C=N/c1nc2c(ccn2C2CC(O)C(CO)O2)c(=O)[nH]1 (stereo not shown) [CBK201276],118.517
6,CN1CCN(c2ccccc2NC(=O)c2cccc3c(Br)cccc23)CC1 [CBK267894],78.6419
7,CC1CCN(S(=O)(=O)c2ccc(C(=O)N[C@@H](C)C(=O)O)cc2)CC1 [CBK297106],98.7489
8,Cc1ccccc1-c1ccc(C(=O)N2CCN(C)CC2)c(NCc2cccnc2)n1 [CBK076125],82.4414
9,CCOC(=O)Cc1csc(SC(C)C(=O)N2CCc3ccccc3C2)n1 (stereo not shown) [CBK305586],15.4913
10,CN(Cc1ccccc1N1CCOCC1)C(=O)Cc1cn2ccsc2n1 [CBK305830],62.7825
11,CS(=O)(=O)N[C@H]1C[C@H]2C(=O)Nc3ccc(-c4ccc(F)cc4F)cc3C(=O)N2C1 [CBK289368],93.872
12,CC(=O)Nc1ccc(S(=O)(=O)N(C)CC(=O)O)cc1 [CBK267570],92.6653
13,O=C(Nc1cccc(C=Cc2ccccn2)c1)c1c[nH]nc1-c1ccc(F)cc1 [CBK295335],87.9875
14,Cc1ccc(C)n1C1CC(C)(C)NC(C)(C)C1 [CBK019116],46.6745
15,COc1ccc(C2CCCN2C(=O)CC2CCN(C(=O)CC3CCCCC3)CC2)cc1 (stereo not shown) [CBK286263],79.5583
16,COc1ccc(CC(=O)N2CCCC2c2cccc(Cc3cccc(F)c3)n2)cc1 (stereo not shown) [CBK286220],102.641
17,CC(C)CN1CC(C(=O)NCc2ccccc2-n2ccnc2)CC1=O (stereo not shown) [CBK282189],87.9025
18,COc1ccc(C(=O)Nc2ccc(S(=O)(=O)Nc3nccs3)cc2)cc1I [CBK263880],52.2804
19,O=C(C1CC1)N1CCC(c2[nH]ncc2-c2ccncc2)CC1 [CBK284238],69.2287
20,Cc1c(S(=O)(=O)Nc2ccnn2C)cnn1-c1ccccc1 [CBK062079],99.8198
21,O=C(NCc1ccc2c(c1)CCCO2)C1CC2C=CC1C21CC1 (stereo not shown) [CBK281503],89.8657
22,CC(NC(=O)c1cccc(-n2cnnc2)c1)c1ccc2c(c1)CCC2 (stereo not shown) [CBK282707],96.6999
23,O=C(Nc1cccc([N+](=O)[O-])c1)c1ccc(CSc2ccccc2)cc1 [CBK265295],100.68
24,CC(=O)NC[C@H]1CN(c2ccc3c(c2)CCN(C(=O)Oc2ccccc2)CC3)C(=O)O1 [CBK018498],2.421
25,Cc1ccc(Cn2nc(NC(=O)C3CCCCC3)c3ccccc32)cc1 [CBK048217],126.659
26,O=S(=O)(c1ccccc1)N1Cc2cccc3[nH]cc(c23)C1 [CBK153275],98.7385
27,C[C@@H](Cn1nc2c(cc1=O)CCCC2)NC(=O)c1ccc(F)cc1 [CBK284562],108.484

row,SMILES,% of control remaining
1,COc1cc(C)c(Nc2cccc(/C=C/c3ccccc3)n2)cc1OC [CBK037725],88.1766
2,Nc1ncc(-c2ccc(C(=O)N3CCOCC3)cc2)nc1-c1ccsc1 [CBK200422],90.1045
3,COc1ccc(-c2nnc3c4ccccc4c(C)nn23)cc1S(=O)(=O)N1CCCCC1 [CBK266640],89.8648
4,CCOc1ccccc1N1CCN(C(C(=O)O)c2c[nH]c3ccc(CO)cc23)CC1 (stereo not shown) [CBK286816],92.6777
5,O=C(O)CCC(=O)N[C@H]1CCN2C(=O)c3cc(-c4ccc(Cl)cc4)ccc3NC(=O)[C@H]12 [CBK289275],100.277
6,CC(=O)c1sc2nc(-c3ccccc3)nc(C)c2c1N [CBK115368],83.9701
7,O=C(O)c1nccnc1-c1ccc(Cn2ccc3ccccc32)cc1 [CBK050811],115.867
8,Cc1[nH]c2ccccc2c1/C=N/NC(=O)C1COc2ccccc2O1 (stereo not shown) [CBK261482],115.278
9,CCCC/C=C/c1cncc(NC2CCC(N)CC2)n1 (stereo not shown) [CBK037827],97.549
10,CC(=O)Nc1cccc(-c2nccnc2N2CCCCC2CCO)c1 (stereo not shown) [CBK036591],117.18
11,Cc1ccc(OCC(=O)NCC2CCN(c3cnn(C)c(=O)c3)C2)cc1 (stereo not shown) [CBK306693],88.0184
12,CC(C)n1ncc2cc(C(=O)Nc3ncccc3O)cnc21 [CBK305751],90.3504
13,CCCCc1ccc(-c2nc3ncccc3cc2O)cc1 [CBK073702],69.7048
14,CCN(CC(=O)Nc1ccc(OC)c(Cl)c1)S(=O)(=O)c1ccc2ccccc2c1 [CBK267910],103.114
15,Cc1cc(NS(=O)(=O)c2ccc(Nc3nc(-c4ccccn4)cs3)cc2)no1 [CBK263302B],22.0676
16,CC(=O)N1C[C@H](c2cccc(C)c2)[C@H]2CN(C3CCCC3)CC[C@H]21 [CBK283369],108.558
17,CCOc1ccccc1/C=N/Nc1ccccc1[N+](=O)[O-] [CBK261673],109.799
18,O=C(c1ccco1)N(CCCn1ccnc1)c1nc2c(F)cccc2s1 [CBK287758],99.7431
19,Cn1ccnc1C(NC(=O)[C@@H]1C[C@@H]2C=C[C@H]1C2)c1ccc(F)cc1 (stereo partly shown) [CBK281483],97.2136
20,Cc1ccc(OCc2nnc(SCC(=O)c3cccs3)n2-c2ccccc2)cc1C [CBK265033],110.171
21,O=C(Nc1ccc(Cc2ccc(O)c(NC(=O)c3ccccc3F)c2)cc1O)c1ccccc1F [CBK265766],93.0438
22,CN1CCN(c2cccc(-c3ccc(CNC(=O)OC(C)(C)C)cc3)n2)CC1 [CBK037641],123.579
23,O=C(O)c1c(Br)c(Br)c(Br)c(Br)c1C(=O)NCCc1ccccc1 [CBK261702],92.6826
24,C=C(C)CN1CCN(Cc2c[nH]nc2C(C)(C)C)CC1 [CBK282827],79.3584
25,CCNC(=S)N1CCN(CCNC=C2C(=O)CC(C)(C)CC2=O)CC1 [CBK263661],106.077
